From PMC4336329 (PLoS ONE, 2015)
Hit rate of the full screen: of about 310,000 compounds, about 2,200 (0.71%) showed an effect of 50% or more. Effects have a minus sign here. Some of the results follow.

The compounds below were run against human ether-à-go-go-related gene (hERG) potassium channel (human, UniProt Q12809) (assay: primary screen, population patch clamp on CHO cells stably expressing hERG).
Sequence of human ether-à-go-go-related gene (hERG) potassium channel (Q12809 whole entry, looked up): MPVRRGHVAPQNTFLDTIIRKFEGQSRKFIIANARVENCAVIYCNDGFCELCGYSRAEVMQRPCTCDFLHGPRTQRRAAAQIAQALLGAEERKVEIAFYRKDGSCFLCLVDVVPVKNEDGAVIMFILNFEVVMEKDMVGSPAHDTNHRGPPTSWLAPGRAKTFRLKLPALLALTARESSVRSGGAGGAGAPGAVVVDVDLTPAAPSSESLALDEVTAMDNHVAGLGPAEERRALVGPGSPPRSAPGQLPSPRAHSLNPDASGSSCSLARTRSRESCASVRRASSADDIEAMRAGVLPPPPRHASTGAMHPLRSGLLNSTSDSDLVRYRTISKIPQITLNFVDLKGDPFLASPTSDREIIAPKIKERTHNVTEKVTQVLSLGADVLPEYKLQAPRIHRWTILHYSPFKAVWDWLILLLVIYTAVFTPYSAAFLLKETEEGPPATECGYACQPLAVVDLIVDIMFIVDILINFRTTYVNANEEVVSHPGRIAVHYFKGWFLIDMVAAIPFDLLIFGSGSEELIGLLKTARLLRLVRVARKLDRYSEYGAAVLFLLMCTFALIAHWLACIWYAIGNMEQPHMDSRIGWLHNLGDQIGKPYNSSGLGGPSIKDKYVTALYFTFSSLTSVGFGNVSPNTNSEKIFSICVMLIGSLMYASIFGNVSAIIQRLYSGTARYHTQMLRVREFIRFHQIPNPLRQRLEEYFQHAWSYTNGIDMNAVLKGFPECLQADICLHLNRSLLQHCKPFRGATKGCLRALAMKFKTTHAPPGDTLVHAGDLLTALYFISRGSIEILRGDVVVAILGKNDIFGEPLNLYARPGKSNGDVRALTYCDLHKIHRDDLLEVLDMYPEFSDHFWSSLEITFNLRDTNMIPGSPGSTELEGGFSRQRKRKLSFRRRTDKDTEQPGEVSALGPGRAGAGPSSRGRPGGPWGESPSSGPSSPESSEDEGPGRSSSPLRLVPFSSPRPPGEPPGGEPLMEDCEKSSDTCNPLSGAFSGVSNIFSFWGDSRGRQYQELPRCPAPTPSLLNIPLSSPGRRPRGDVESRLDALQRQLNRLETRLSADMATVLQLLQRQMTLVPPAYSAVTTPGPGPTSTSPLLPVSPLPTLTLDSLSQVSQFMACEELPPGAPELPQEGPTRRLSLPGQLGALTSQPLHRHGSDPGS

| SMILES | hERG current change (%, negative = inhibition) at 1uM |
| --- | --- |
| NC(=O)c1nnn(-c2ccccc2)c1N | 14.8% |
| CC(=O)n1cc(/C=N/NC(=O)c2ccc([N+](=O)[O-])cc2)c2ccccc21 | 14.7% |
| O=C(CSC1=NS(=O)(=O)c2cc(Cl)ccc2N1)c1ccc(Cl)cc1 | 10.6% |
| C[C@H](N=C1NS(=O)(=O)c2ccccc21)C(=O)OCc1cc([N+](=O)[O-])cc2c1OCOC2 | -6.37% |
| CCOC(=O)C1C(=O)CC(C)(O)C(C(=O)OCC)C1c1ccc(OCC)cc1 (stereo not drawn) | -2.96% |
| CCOC(=O)C1(Cc2ccccc2)CCN(Cc2ccc3cc(NC(C)=O)ccc3n2)CC1 | -19.1% |
| CC12CCC(C(=O)OC3CCCCC3)(OC1=O)C2(C)C (stereo not drawn) | 14.5% |
| O=C(COc1cccnc1[N+](=O)[O-])NCCc1ccc(Cl)cc1 | 9.83% |
| COc1ccc(C(=O)OC(C)C(=O)NC2CCCC2)cc1S(=O)(=O)N1CCOCC1 (stereo not drawn) | 10.1% |
| COC(=O)c1ccc(C23CC4(C2)[C@H](CN(Cc2ccc(C(F)(F)F)cc2)[C@@H]4c2ccccc2)C3c2ccc(Cl)nc2)cc1 (stereo partly drawn) | 14.3% |
| CCOC(=O)c1cc(OCC(=O)NC(C)C(C)C)cc(C(=O)OCC)c1 (stereo not drawn) | 2.41% |
| Cc1ccc(S(N)(=O)=O)cc1NC(=O)C1CC2CCC1C2 (stereo not drawn) | 10.9% |
| Cc1ccc(C)c(S(=O)(=O)N2CCN(C(=O)c3ccc(-n4cncn4)c([N+](=O)[O-])c3)CC2)c1 | -24.9% |
| O=C1NC(N2CCOCC2)=N/C1=C/c1ccc2c(c1)OCO2 | 11.1% |
| Cc1cc(=O)[nH]c(N/N=C/c2ccc(-c3ccc(F)cc3)o2)n1 | 4.59% |
| CC1Cc2nc(SCC(=O)c3ccccc3)n(Cc3ccccc3)c(=O)c2S1 (stereo not drawn) | 11.6% |
| CC(=O)Nc1ccc(NS(=O)(=O)c2ccc(-c3csc(C)n3)s2)cc1 | 2.06% |
| O=C(CSc1nc(=O)n(CCCN2CCOCC2)c2c1CCC2)Nc1ccc(F)cc1F | -3.76% |
| COc1ccc(-n2nc(C(=O)Nc3nc4ccc(OC)cc4s3)c3ccccc3c2=O)c(OC)c1 | 9.59% |
| CCN(CC)C(=O)c1ccc2c(=O)n(Cc3cccc(Br)c3)c(=S)[nH]c2c1 | 16.1% |
| CCC1(C)CC(C(N)=S)CCO1 (stereo not drawn) | 10.4% |

| SMILES | hERG current change (%, negative = inhibition) at 1uM |
| --- | --- |
| C=CCN(C(=O)c1csnn1)C(C(=O)NC1CCCC1)c1ccc(OC)cc1 (stereo not drawn) | 8.18% |
| CCCc1ccc(-c2cc(C(=O)NN3CCOCC3)c3ccccc3n2)cc1 | -1.34% |
| CCCN(CCC)C(C(=O)Nc1cccc(OC)c1)c1ccccc1 (stereo not drawn) | 15.6% |
| O=C(Nc1ccc(F)cc1)c1nc[nH]c1C(=O)Nc1ccccc1[N+](=O)[O-] | 1.76% |
| COc1ccc2nc(SCC(=O)NC3CCCCC3C)[nH]c2c1 (stereo not drawn) | 9.58% |
| Cc1ccc(C2CC(=O)C=C(O)C2)cc1 (stereo not drawn) | 7.09% |
| O=C(NC(=S)Nc1cccc(Cl)c1N1CCCCC1)c1ccco1 | 20.3% |
| O=C(O)C1CCCN1C1=NS(=O)(=O)c2ccccc21 (stereo not drawn) | 2.35% |
| Cc1nnc2n(c1=O)C(CS(=O)(=O)c1ccc3ccccc3c1)CS2 (stereo not drawn) | 9.24% |
| CCc1nc(SCC(=O)Nc2ccc([N+](=O)[O-])cc2)n[nH]1 | 12.8% |
| COc1ccc(S(=O)(=O)N2CCN=C2SCc2cccc(C)c2)cc1 | 14.1% |
| CN1C(CC(=O)c2ccccc2)CCCC1CC(O)c1ccccc1 (stereo not drawn) | -55.2% |
| O=C(COC(=O)C1CC(O)CN1S(=O)(=O)c1ccc(Cl)cc1)c1ccccc1 (stereo not drawn) | 11.9% |
| O=C(COC(=O)c1cc(=O)[nH]c2ccccc12)c1ccccc1 | 11.3% |
| CCc1sc(N(C(=O)Cc2ccccc2)c2cccc(F)c2)nc1-c1ccc(C)cc1 | -3.77% |
| Nc1c(C(=O)NCc2ccccc2)c2nc3ccccc3nc2n1-c1ccc2c(c1)OCO2 | 6.37% |
| COC(=O)c1c(N)n(CCCN2CCOCC2)c2nc3ccccc3nc12 | 2.97% |
| COC(=O)c1cc(-c2ccccc2)sc1N | 11.6% |
| CC(C)CCNC(=O)CNC(=S)N(Cc1ccccc1)Cc1cccnc1 | 0.279% |
| CN1CCN(c2ccccc2NC(=O)c2ccc(-c3cccc([N+](=O)[O-])c3)o2)CC1 | -0.213% |
| C=C(C)C(=O)Nc1cccc(C2=NOC3(C2)C[C@@H](C(N)=O)N(C(=O)CC(c2ccccc2)c2ccccc2)C3)c1 (stereo partly drawn) | 8.76% |
